Measured values: PubChem BioAssay AID463173 (ICCB-Longwood Screening Facility, Harvard Medical School, 2010)
About 1,700 (3.3%) of roughly 52,000 compounds were called active. No stated cut-off is given here; in the data, active means survival mostly below about 52% (no sharp cut-off); inactive means mostly above about 56%. Some of the results follow.

Test system: Wild type
Assay: S. aureus survival, RN4220 and DeltatarO strains – OD600, teichoic acid synthesis inhibitors, primary screen (AID 463173)
Details: S. aureus RN4220 wild type/DeltatarO growth, OD600, 18 h, hits give low values, screened at 18.75 µg/mL (by protocol)

Compound	survival
COc1cc(OC)cc(-c2cc3nc(-c4ccccc4)cc(N4CCN(c5ccccc5)CC4)n3n2)c1	inactive: 101%
CCS(=O)(=O)N1CCCC(c2nc3c(nnn3Cc3ccc(C)cc3)c(=O)[nH]2)C1 (stereo unspecified)	inactive: 101%
CN(C(=O)CSc1nc(N)cc(=O)[nH]1)c1ccccc1	inactive: 98%
Cc1cc(C)c(Cn2c(=O)n(-c3ccccc3Cl)c(=O)c3c(C)c(C(=O)N(C)C)sc32)c(C)c1	inactive: 75%
Cc1cn2c(=O)cc(COc3cccc(NC(=O)c4ccccc4Cl)c3)nc2s1	inactive: 88%
COc1ccc(N2CCN(C(=O)c3ccc4c(c3)N(Cc3cc(C)ccc3C)C(=O)c3ccccc3S4=O)CC2)cc1 (stereo unspecified)	inactive: 86%
COc1cccc(N2CC(NC(=O)C3CCCCC3)CC2=O)c1 (stereo unspecified)	inactive: 148%
CC(=O)c1c(C)oc2ccc(NS(=O)(=O)c3ccc(C(C)C)cc3)cc12	inactive: 86%
Cc1ccccc1C(=O)Nc1cccc(-c2cn3cccnc3n2)c1	inactive: 105%
COc1ccc(C(=O)Nc2nnc(S(=O)(=O)N3CCN(c4ccc(C)cc4)CC3)s2)cc1	inactive: 79%
CC(Oc1ccccc1)C(=O)Nc1nnc(S(=O)(=O)N2CCCCCC2)s1 (stereo unspecified)	inactive: 81%
COc1cccc(-c2cc(C(=O)Nc3ccc4c(c3)OCO4)no2)c1	inactive: 90%
COc1ccc(-c2cc3nc(C)c(CCC(=O)Nc4ccc(F)cc4F)c(C)n3n2)c(OC)c1	inactive: 75%
Cc1ccc(Oc2nc3c(c(=O)n(Cc4ccccc4Cl)c(=O)n3C)n2C)cc1C	inactive: 81%
COc1ccc(NC(=O)CSc2ccc(-c3cccs3)nn2)cc1	inactive: 89%
COc1ccc(/C=C/C(=O)N2CCC(c3nc4ccccc4o3)CC2)cc1	inactive: 91%
CCOc1ccc(C(=O)Nc2ccc(C(=O)OCc3cc(=O)n4nc(CC)sc4n3)cc2)cc1	inactive: 73%
COC(=O)c1ccc(NC(=O)N2CCC(CN3CCc4ccccc4C3)CC2)cc1	active: 1%
CCOC(=O)c1ccc(NS(=O)(=O)c2cn(C)c(C)n2)cc1	inactive: 73%
CCS(=O)(=O)c1nc(S(=O)(=O)c2ccc(C)cc2)c(NCc2ccc(Cl)cc2)s1	inactive: 86%
Cc1ccc(S(=O)(=O)N2CCCc3cc(NC(=O)c4ccc(F)c(F)c4)ccc32)cc1	inactive: 66%
CCOc1ccc(N(CC)S(=O)(=O)N2CCCC(C(=O)Nc3ccc(NC(C)=O)cc3)C2)cc1 (stereo unspecified)	inactive: 86%

Compound	survival
O=C(COc1ccc2oc3c(c2c1)CCCC3)Nc1ccc(Cl)cc1	inactive: 81%
CCOc1ccc(-c2c(C)nn3c(-c4ccccc4)c(C(=O)NCCOC)cnc23)cc1OCC	active: -6%
COc1cccc(C(=O)Nc2cc(-c3ccccc3)nn2-c2ccccc2)c1	inactive: 69%
Cc1ccc(CCNC(=O)c2cc3cc4cc(C)ccc4nc3s2)cc1	inactive: 64%
COc1ccc(NC(=O)N(C(C)C)C2CCN(C(C)=O)CC2)c(OC)c1	active: -4%
CN(C)S(=O)(=O)N1CCC(n2cnc3cccnc32)CC1	inactive: 113%
COc1ccccc1Cn1c(CNS(=O)(=O)c2ccc(CC(C)C)cc2)nc2cccnc21	inactive: 76%
CC(=O)N1CC=C2C(C#N)=C(N)C(C#N)(C#N)C(C)C2C1 (stereo unspecified)	inactive: 103%
CCOc1ccc(NC(=O)Cn2cc(C(=O)c3ccc(OCC)cc3)c(=O)c3cc4c(cc32)OCCO4)cc1	inactive: 87%
COc1cccc(NC(=O)CN2C(=O)COc3ccc(S(=O)(=O)N4CCCCCC4)cc32)c1	inactive: 97%
O=C1C2=C(Nc3ccccc3SC2c2ccc(Cl)c(Cl)c2)c2ccccc21 (stereo unspecified)	inactive: 73%
CCc1ccc(NC(=O)CC2C(=O)N(c3ccc(C)cc3)C(=O)N2CCc2ccncc2)cc1 (stereo unspecified)	inactive: 98%
COC(=O)Cc1c(C)c2cc3c(c(C)c2oc1=O)OCN(CCc1ccc(F)cc1)C3	inactive: 82%
COc1cccc(N2C(=O)C(CC(=O)Nc3ccc(F)cc3)N(CCC3=CCCCC3)C2=O)c1 (stereo unspecified)	inactive: 77%
COc1ccc(NC(=O)CN(C)S(=O)(=O)c2ccc(C(=O)N3CCOCC3)s2)cc1	inactive: 73%
Nc1c(C(=O)NCc2ccc3c(c2)OCO3)nnn1CC(=O)Nc1ccc(Br)cc1	inactive: 47%
Cc1cccc(C)c1OCC(=O)N1CCC(c2nc3ccccc3o2)CC1	inactive: 81%
Cc1cccc(NC(=O)CSc2cn(CC(=O)N3CCCC3)c3ccccc23)c1C	inactive: 98%
CC(=O)N1CCCc2cc(S(=O)(=O)N3CCCC(C(=O)NCc4ccccc4)C3)ccc21 (stereo unspecified)	inactive: 97%
Cc1ccc(Cn2cc(C(=O)c3ccc(C)cc3)c(=O)c3ccc(C)nc32)cc1	active: 20%
CCc1ccc(-c2cc(C)no2)cc1S(=O)(=O)Nc1ccc(Cl)cn1	active: -1%
Cc1cc(SCC(=O)Nc2ccc(Cl)cc2)nc2ccccc12	inactive: 81%

Compound	survival
Cc1cccc(N2CCN(C(=O)C3CCN(Cc4nc(-c5ccc(Cl)cc5)oc4C)CC3)CC2)c1C	inactive: 47%
COc1cc(OC)c(NC(=O)c2cc3c(s2)-c2ccc(Cl)cc2SC3)cc1Cl	inactive: 96%
Cc1cc(NC(=O)C2CCC(CNS(=O)(=O)c3ccc(Br)s3)CC2)ccc1Br (stereo unspecified)	inactive: 92%
N#CCN(CC#N)C(=O)C1c2ccccc2Oc2ccccc21	inactive: 110%
CCc1nn2c(-c3ccco3)ccnc2c1-c1ccccc1	inactive: 89%
COc1ccc(C)cc1S(=O)(=O)Nc1cccc(-c2ccc(N3CCC(C)CC3)nn2)c1	active: -4%
Cc1nonc1OCC(C)(N)COc1nonc1C	inactive: 101%
CCC1CN(C(=O)N2CCC(C(=O)NCc3cc(OC)ccc3OC)CC2)c2ccccc2O1 (stereo unspecified)	inactive: 86%
O=C(NCC1COc2ccccc2O1)c1cn(Cc2ccc(F)cc2)nn1 (stereo unspecified)	inactive: 107%
CCOC(=O)c1cc(S(=O)(=O)Nc2ccc(OC(F)(F)F)cc2)[nH]n1	inactive: 87%
COc1ccc(NC(=O)CSc2nc(-c3ccc(OC)cc3)cc(=O)[nH]2)cc1	inactive: 148%
Cn1c(C(=O)NCc2ccc(F)cc2)cc2cc(S(=O)(=O)N3CCCCC3)ccc21	inactive: 131%
COc1ccc(-c2cc3ccc(O)c(CN4CCN(CCO)CC4)c3oc2=O)cc1OC	inactive: 80%
Cc1ccc(CSc2nnc(-c3ccc(O)cc3)o2)cc1	inactive: 108%
O=C(Nc1cccc(Cl)c1Cl)c1cc2nc(-c3ccc4c(c3)OCO4)cc(C(F)(F)F)n2n1	inactive: 64%
Cc1cccn2c(Nc3ccc4c(c3)OCCO4)c(-c3ccc(Br)o3)nc12	inactive: 66%
CCN(C(=O)Cn1c(SCC(=O)NCc2ccccc2)nc2ccccc21)c1cccc(C)c1	inactive: 65%
COC(=O)c1cc(S(N)(=O)=O)c(C)o1	inactive: 110%
O=C(NCc1ccccc1Cl)c1cnc(N2CCCCC2)c2ccccc12	inactive: 124%
COc1ccccc1NC(=O)c1oc2ccccc2c1NC(=O)c1ccc(S(=O)(=O)N(C)C)cc1	inactive: 71%
COc1ccc(OC)c(CNC(=O)c2cc(-c3ccc(Cl)s3)nc3ccccc23)c1	inactive: 88%
COc1cc(-c2nc3n(n2)C(c2ccc(F)cc2)C(C(N)=O)=C(C)N3)cc(OC)c1OC (stereo unspecified)	inactive: 84%

Compound	survival
Cc1ccc(-n2nc(C(=O)NCCc3cccc(C)c3)c3c4ccccc4n(C)c3c2=O)cc1	inactive: 126%
N#CC(C#N)=C1c2ccccc2-c2nc(C#N)c(C#N)nc21	inactive: 107%
Cc1ccc(CNC(=O)c2cc(C3CC3)nc3c2c(C)nn3-c2cccc(Cl)c2C)cc1	inactive: 94%
CCCN(CCC)C(=O)c1c[nH]c2ccc(S(=O)(=O)Nc3cc(C)cc(C)c3)cc2c1=O	inactive: 83%
Cc1ccc(NC(=O)c2nc(S(=O)(=O)Cc3cccc(C)c3)ncc2Cl)cc1	active: -1%
Cc1ccc(N2C(=O)c3oc4cc(C)c(C)cc4c(=O)c3C2c2cccc(O)c2)nc1 (stereo unspecified)	inactive: 78%
Cc1ccc(S(=O)(=O)Nc2cc(Cl)c3oc4c(c3c2)C(=O)CC(C)(C)C4)cc1	inactive: 144%
COc1cc(C(=O)Nc2ccc(-c3cc(C(F)(F)F)nn3-c3ccccc3)cc2)cc(OC)c1OC	inactive: 97%
COc1ccccc1CNc1nc(-c2ccco2)nn1S(=O)(=O)c1ccc(Cl)cc1	inactive: 96%
CCc1ccccc1NC(=O)c1cnn2c(C(F)(F)F)cc(-c3ccc(OC)c(OC)c3)nc12	inactive: 92%
COc1cc(OC)c(NC(=O)Cn2c(=O)cc(C(F)(F)F)c3c(C)nn(C)c32)cc1Cl	inactive: 102%
COCCNC(=O)C(=O)Nc1c2c(nn1-c1ccccc1)CS(=O)(=O)C2	inactive: 76%
Cc1ccccc1NC(=O)CSc1nc2ccc(NC(=O)COc3ccccc3F)cc2s1	inactive: 81%
CCOc1ccc(CCNC(=O)Cn2nc(C)c3c(C)n(-c4ccccc4)nc3c2=O)cc1OCC	inactive: 19%
CCOC(=O)c1c(C)sc(-c2c(-c3cc(C)ccc3C)[nH]c3c2c(=O)[nH]c(=O)n3C)c1O	inactive: 72%
CCOC(=O)c1cnn(-c2cccc(F)c2)c1C1CCNCC1	inactive: 124%
Cc1cccc(NC(=O)Cn2nc(N3CCN(c4ccccc4)CC3)ccc2=O)c1C	inactive: 112%
CCCCN(CC)CCCNC(=O)c1cn(C)c2ccc(S(=O)(=O)N(C)C3CCCCC3)cc2c1=O	inactive: 88%
CCOc1cc(C(=O)NCc2ccc3c(c2)CCN3C(=O)CC)cc(OCC)c1OCC	inactive: 82%
O=C(Nc1ccccc1C(=O)O)c1cccc(S(=O)(=O)N2CCCC2)c1	inactive: 92%
